The source gives no read counts; variants with many changes may rest on few reads.
B1: LINE1-mini (parent)
chain: GGCAGAGCUCAACACAGCGUGGCAAAGUGGCUGUGGCUAGACUGCC

Variants of: B1
Assay: self-cleavage, relative activity (ratio to wild type); higher = more cleavage; in vitro, sequencing; the parent is a self-cleaving ribozyme
GGCAGAGCUGAACACAGCGUCGGAAAGUUGCUUUGGCUAGACUGCC [C10G G21C C23G G29U G33U] showed a self-cleavage of 0.01.
In the case of GGCAGAGCUGAACACACUGUGGCAAAGGGGCGGUGGCUAGACUGCC [C10G G17C C18U U28G U32G], the self-cleavage is reported as 0.
Variant GGCAGAGCUGAAAACAGCGUGGCAAAUUGGCUGUGGCUAGACUGCC [C10G C13A G27U] has a self-cleavage of 0.
GGCAGAGCUGAACACAUUGUGGCAAAGUGGCUGUGGCUAGACUGCC [C10G G17U C18U] showed a self-cleavage of 0.05.
In the case of GGCAGAGCUGAACAAAUCGUGGCAAAGUGGAUGUGGCUAGACUUCC [C10G C15A G17U C31A G44U], the self-cleavage is reported as 0.02.
Variant GGCAGAGCUGAACACAGUGUGGCAAGGUGGCUAUGGCUAGACUGCC [C10G C18U A26G G33A] has a self-cleavage of 0.01.
With GGCAGAGCUGAACACAGCGUGGCAAAGUGGUUGUGGCUAAACUGCC [C10G C31U G40A] the self-cleavage was 0.06.
In the case of GGCAGAGCUGAACACAGCGUGGCAAAUUGGCUGUGGCGAGACUGCC [C10G G27U U38G], the self-cleavage is reported as 0.04.
Work on GGCAGAGCUUCACACAGCGUGGGAAAUUGGCUGUAGCUAGACUGCC [C10U A11C C23G G27U G35A] yielded a self-cleavage of 0.01.
Work on GGCAGAGCUGAACACACCGUGCCUAAGUGACAGUGGCUGGAUUGCC [C10G G17C G22C A24U G30A U32A A39G C42U] yielded a self-cleavage of 0.01.
Work on GGCAGAGCUGAACUCAGCGUGGCAAAGUGGCUGUGGCUCGACUGCC [C10G A14U A39C] yielded a self-cleavage of 0.03.
GGCAGAGCUGAACACAGCGUGGCAAAGUGGCUGUGGGUAGUCUGCC [C10G C37G A41U] gave a self-cleavage of 0.
For GGCAGAGCUUACCACAGCGUGGAACAGUGGCUGUGAGUAGACUGCC [C10U A12C C23A A25C G36A C37G], the self-cleavage was 0.
For GGCAGAGCUGAACACAGCGUGCCAAAGUGGCUGUGUCUAGACUGCC [C10G G22C G36U], the self-cleavage was 0.04.
In the case of GGCAGAGCUGAACACAGCGUGGCAAAGUGUCUGUGGCUGGACUGCC [C10G G30U A39G], the self-cleavage is reported as 0.01.
For GGCAGAGCUGAGCACUGCGUGGUAAAGUAGCUGUGGCUCGACUGCC [C10G A12G A16U C23U G29A A39C], the self-cleavage was 0.01.
GGCAGAGCUUGACACAGCGUGGCAAAGUGGUCGUGGCUAGACUGCC [C10U A11G C31U U32C] gave a self-cleavage of 0.03.
Work on GGCAGAGCUGAUCACAGAGUGGCAAAGUGGCUGUGGCUAGACUGCC [C10G A12U C18A] yielded a self-cleavage of 0.01.
Work on GGCAGAGCUGAACAAAGCGUGGCAAAGUGGCUGUGGCGAGACUGCC [C10G C15A U38G] yielded a self-cleavage of 0.01.
For GGCAGAGCUGAGCACAGCGUGUCAAAGUGGCUGUGGCUAGACUGCC [C10G A12G G22U], the self-cleavage was 0.02.
Variant GGCAGAGCUUAGCACGGCGUGGCAAAGUGGCUGUGGCUAGACAGCC [C10U A12G A16G U43A] has a self-cleavage of 0.06.
With GGCAGAGCUGAACACAGCGUGGCAAAGUGGCUGUGGGUAGAAUGCC [C10G C37G C42A] the self-cleavage was 0.
In the case of GGCAGAGCUGACAACAGCGUGGCGAAGUGGCUUUGGCUAGACUGCC [C10G A12C C13A A24G G33U], the self-cleavage is reported as 0.02.
Work on GGCAGAGCUGAACACAGCUUGCCAAAGUGGCUGUGGCUAGACUGCC [C10G G19U G22C] yielded a self-cleavage of 0.05.
Variant GGCAGAGCUGAACACAGCGUGGCAAAGUGGCUGUAGCUAGACUGCA [C10G G35A C46A] has a self-cleavage of 0.02.
Work on GGCAGAGCUGAACACAGCGUGGCAUAGUGGCUGUGGCUAGACUGAC [C10G A25U C45A] yielded a self-cleavage of 0.05.
Variant GGCAGAGCUGAACACAGCGUGGCAAAGUGGUUGUUGCUAGACUGCC [C10G C31U G35U] has a self-cleavage of 0.01.
GGCAGAGCUGAACAAAGCGUGGCACAGUGGCUUUGGCUAGAUUGCU [C10G C15A A25C G33U C42U C46U] gave a self-cleavage of 0.01.
For GGCAGAGCUGAACACAGCGUGGCAAAGUGGCUAUGGCUACACUGCC [C10G G33A G40C], the self-cleavage was 0.01.
Variant GGCAGAGCUGUUCACAGCGUGGUAAAGUGGCUGUGGCUAGACUGCC [C10G A11U A12U C23U] has a self-cleavage of 0.02.
Work on GGCAGAGCUGAACACAGCGUAGCAAAGUGACAGUGGCUAGACUGCU [C10G G21A G30A U32A C46U] yielded a self-cleavage of 0.02.
Variant GGCAGAGCUGAACACAGCGUGGCAAAGUGGCUGUCGCUAGACUGUU [C10G G35C C45U C46U] has a self-cleavage of 0.01.
In the case of GGCAGAGCUGAACUAAGGGUGGCAAAGUGGCUAUGGCUAUACUGCC [C10G A14U C15A C18G G33A G40U], the self-cleavage is reported as 0.01.
With GGCAGAGCUGAACACAGCGUGGCAAGGUGGCUGUGGCUAGACUGCA [C10G A26G C46A] the self-cleavage was 0.08.
GGCAGAGCUGAACACAGCUUGGCAAAGUAGCUGUGGCUAGACUCCC [C10G G19U G29A G44C] showed a self-cleavage of 0.07.
GGCAGAGCUGUACACAGCGUGGCAAAGUGUCUGUGGAUAGACUGCC [C10G A11U G30U C37A] showed a self-cleavage of 0.
For GGCAGAGCUGAACAGAGCGUGGCAAAGUGGCUGUAGCUAGACUGCC [C10G C15G G35A], the self-cleavage was 0.04.
In the case of GGCAGAGCUGAUCACAGCGUGGCAAAAUGGCCGUGGCUAGACUGCC [C10G A12U G27A U32C], the self-cleavage is reported as 0.01.
GGCAGAGCUGAACACAGCGUGGCAAAGUGGCGGUGGCUAGACUACC [C10G U32G G44A] showed a self-cleavage of 0.
For GGCAGAGCUGAAGACAGCGUGGCUAACUGGGUGUUGCUAGACUGCC [C10G C13G A24U G27C C31G G35U], the self-cleavage was 0.02.
With GGCAGAGCUUUACACAGCGUGGCAAUGUGGAUGUGGCUAGACUGCC [C10U A11U A26U C31A] the self-cleavage was 0.04.
GGCAGAGCUGAACAUAGCGUGGAUAAGUGGCUGUGGCUAGACUGCC [C10G C15U C23A A24U] showed a self-cleavage of 0.49.
GGCAGAGCUGAACGCAGCGUGGCAAAGUGGCUGUGGCUAGACUGCG [C10G A14G C46G] showed a self-cleavage of 0.02.
With GGCAGAGCUGAACACAAAGUGGCAAAGUGGCUGUGGCCACACUGUC [C10G G17A C18A U38C G40C C45U] the self-cleavage was 0.01.
In the case of GGCAGAGCUGAACACAGCUUGGCAAAGUGGAUGUGGCUAGACUGCC [C10G G19U C31A], the self-cleavage is reported as 0.
GGCAGAGCUGAACACAGCGUGGCCAAGUUCCUGUGGCUAGACUGCC [C10G A24C G29U G30C] gave a self-cleavage of 0.01.
GGCAGAGCUGAACACAGCGUUGCAAAGUGGGUGUGGCUAGACUGCC [C10G G21U C31G] showed a self-cleavage of 0.09.
Variant GGCAGAGCUGAACACAGCGUGGCAAGGUGGCUGUGGCUAGACUGUC [C10G A26G C45U] has a self-cleavage of 0.04.
For GGCAGAGCUGAACACAGCGUACCAAAGUGGCUGUGGCUUGACUGCC [C10G G21A G22C A39U], the self-cleavage was 0.08.
With GGCAGAGCUUACCACAGCGUGGCAAAGUGGCUAUGGCUAGACUGAC [C10U A12C G33A C45A] the self-cleavage was 0.03.
GGCAGAGCUUCACACAGCGUGGCAAAGUGGCUGUGGCUAAACUGCC [C10U A11C G40A] showed a self-cleavage of 0.01.
In the case of GGCAGAGCUGAACACAGCGUGGCGAAGUGGCGGUGGCUAGACUGCC [C10G A24G U32G], the self-cleavage is reported as 0.16.
In the case of GGCAGAGCUGAACACAGCGUGGCAAAGUGGUUGUGGCUAGAAUGCC [C10G C31U C42A], the self-cleavage is reported as 0.
Work on GGCAGAGCUGAACACGUCGUGGCAAAGUGGCUGUGGCUAGAGGGCC [C10G A16G G17U C42G U43G] yielded a self-cleavage of 0.08.
In the case of GGCAGAGCUUAGCACCGCGUGGCAAAGUGGCCGUGGCUAGACUGCC [C10U A12G A16C U32C], the self-cleavage is reported as 0.07.
With GGCAGAGCUGAACACAUCGUGGCAAAGAGGCUGUGGCUUGAGUGCC [C10G G17U U28A A39U C42G] the self-cleavage was 0.01.

From the RNAGym collection of RNA variant scans (doi:10.7554/elife.90254)
